The test system of this assay is MCF-7 cells. Description: DNA-flow cytometric cell cycle analysis (PI staining). Type of assay: cell-based, human. Conditions: MCF-7, 24 h. The protocol:
More details in the ESI. ^†
DMSO was utilized as a negative control. The stages of cell cycle were being detected via flow cytometry after propidium iodide (PI) staining followed by RNAse treatment.[63] In this experiment, MCF-7 cells were incubated with a concentration of 4.021 μM for compound 1 and with 8.35 μM for compound 3c for 24 h. The flow cytometry approach was used to quantify cell populations at various stages of the cell cycle (pre-G1, G1, S and G2/M phases).
screening of final compounds.
using 1 μM concentration of ATP.
1.2.4. Annexin V-FITC apoptosis assay
Briefly, cells were seeded
For orientation: A flow cytometer gives signals particle by particle.

Setting [1] is: 4.021 μM for compound 1, 8.35 μM for 3c.

Turning to `Cc1c(NC2=NC(=O)CS2)c(=O)n(-c2ccccc2)n1C` [Compound 1, 2-((1,5-Dimethyl-3-oxo-2-phenyl-2,3-dihydro-1H-pyrazol-4-yl)amino)thiazol-4(5H)-one], the “percentage of cells at S phase” value under setting [1] came out at 24.11%. The “cell cycle arrest phase” value (at IC50 concentration) is “G2/M phase”.
`Cc1c(Nc2nc3c(C(=O)NN)c(N)sc3s2)c(=O)n(-c2ccccc2)n1C` [Compound 3c, 5-Amino-2-((1,5-dimethyl-3-oxo-2-phenyl-2,3-dihydro-1H-pyrazol-4-yl)amino) thieno[3,2-d]thiazole-6-carbohydrazide]: under setting [1], the “percentage of cells at pre-G1” value is 19.62%.

For the origin of these results see article PMC8694192, “Synthesis and biological evaluation of new derivatives of thieno-thiazole and dihydrothiazolo-thiazole scaffolds integrated with a pyrazoline nucleus as anticancer and multi-targeting kinase inhibitors” (RSC Advances, 2021).
